The source of these data is PubChem BioAssay AID2202238 (Ras Initiative Chemistry Research Team, Frederick National …, 2025).

The structures appear in SMILES notation. Some of the results follow. The main result of the screen is listed elsewhere. These columns were measured beside it and carry no call.

The assay addresses GTPase KRas (Homo sapiens) (UniProt P01116). The assay can be described thus: Covalent labelling of cysteine mutants by fragments, read by mass spectrometry (AID 2202238). The conditions noted are these: KRAS G12D cysteine mutants, disulfide tethering, MALDI-TOF labeling, stronger effect = higher value, fragment at 500 µM. On the set-up: protein at 5 µM with 500 µM competing thiol for 1.5 h.

Where [1] appears, read: measured here: G60C mutant labeling.
[2] abbreviates: measured here: G75C mutant labeling.
Where [3] appears, read: measured here: H94C mutant labeling.
Setting [4] is: measured here: I36C mutant labeling.
Setting [5] is: measured here: L120C mutant labeling.
The mark [6] stands for this setting: measured here: M67C mutant labeling.
Setting [7] is: measured here: M72C mutant labeling.
Where [8] appears, read: measured here: N26C mutant labeling.
Where [9] appears, read: measured here: N86C mutant labeling.
[10] abbreviates: measured here: P121C mutant labeling.
[11] abbreviates: measured here: S122C mutant labeling.
Setting [12] is: measured here: S136C mutant labeling.

Chain of UniProt P01116 (P01116 whole entry, looked up, the tested form may be a part): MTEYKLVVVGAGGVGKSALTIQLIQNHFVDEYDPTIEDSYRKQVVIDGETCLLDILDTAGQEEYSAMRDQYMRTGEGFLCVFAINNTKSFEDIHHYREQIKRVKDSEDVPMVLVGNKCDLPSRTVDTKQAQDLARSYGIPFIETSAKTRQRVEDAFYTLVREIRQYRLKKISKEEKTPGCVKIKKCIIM

On to `N#Cc1cnn(-c2cccc(C(=O)NCCS)c2)c1N`, for which the percent labeling under setting [1] is 33.1%; the percent labeling under setting [2] was determined as 16.8%; the percent labeling under setting [3] was found to be 29.5%; the percent labeling under setting [4] was found to be 25.1%; the percent labeling under setting [5] is 32.3%; the percent labeling under setting [6] was determined as 30.7%. For the same compound, the percent labeling worked out at 38.5% under setting [7]; 48.8% under setting [8]; 27.5% under setting [9]; 27.2% under setting [10]; 26.4% under setting [11]; 45.4% under setting [12].
For `O=C(CCNC(=O)c1cccc(Cl)c1)NCCS`, the percent labeling is 34.1% under setting [1]; 11.3% under setting [2]; 31.6% under setting [3]; 26.9% under setting [4]; 29.9% under setting [5]; 34.9% under setting [6]. The percent labeling is, setting by setting: under setting [7], 28.8%; under setting [8], 35.2%; under setting [9], 25.3%; under setting [10], 27.5%; under setting [11], 25%; under setting [12], 38.8%.
Take `O=C(NCCS)c1nc2ccccc2nc1C1CC1`: the percent labeling is 35.1% under setting [1]; 11.2% under setting [2]; 15.9% under setting [3]; 11.9% under setting [4]; 21.8% under setting [5]; 12.9% under setting [6]. Also, the percent labeling by setting is: under setting [7], 24.6%; under setting [8], 28.6%; under setting [9], 9.3%; under setting [10], 33.3%; under setting [11], 10.2%; under setting [12], 19.6%.
Take `O=C(NCCS)c1c[nH]c(=O)c(C(F)(F)F)c1`: the percent labeling is 38.8% under setting [1]; 29% under setting [2]; 34% under setting [3]; 30.6% under setting [4]; 34.9% under setting [5]; 32% under setting [6]. For the same compound, the percent labeling was 49% under setting [7]; 48.1% under setting [8]; 28.1% under setting [9]; 34% under setting [10]; 41% under setting [11]; 50.7% under setting [12].
Turning to `O=C(CCS)NCCNC(=O)c1cnccn1`, the percent labeling is, setting by setting: under setting [2], 5.5%; under setting [3], 21.8%; under setting [4], 35.5%; under setting [5], 24.1%; under setting [6], 27.2%; under setting [7], 10.2%. In addition, the percent labeling worked out at 19% under setting [9], 34.2% under setting [10], 30.7% under setting [11] and 43.5% under setting [12].
For the compound `CC(C)c1nc(CCNC(=O)CCS)n(C)n1`, the percent labeling is, setting by setting: under setting [2], 7.1%; under setting [3], 20.5%; under setting [4], 29.1%; under setting [5], 22.1%; under setting [6], 27.9%; under setting [7], 9.3%. Besides, the percent labeling runs as follows: under setting [9], 11.3%; under setting [10], 27.4%; under setting [11], 34.1%; under setting [12], 42%.
The compound `O=C(NCCS)c1cc2ccccc2o1` displayed a percent labeling under setting [1] of 44.2%; a percent labeling under setting [2] of 31.7%; a percent labeling under setting [3] of 35.8%; a percent labeling under setting [4] of 26.4%; a percent labeling under setting [5] of 26.6%; a percent labeling under setting [6] of 25.4%. In addition, the percent labeling was 63.6% under setting [7]; 37.8% under setting [8]; 26.1% under setting [9]; 38.7% under setting [10]; 25.1% under setting [11]; 36.9% under setting [12].
For `O=C(NCCS)C1CC(O)c2cc(F)ccc2O1` (stereo unspecified), the percent labeling under setting [1] came out at 43.1%; the percent labeling under setting [2] was determined as 21.3%; the percent labeling under setting [3] was found to be 41.2%; the percent labeling under setting [4] was 26.8%; the percent labeling under setting [5] came out at 46%; the percent labeling under setting [6] was 33.3%. The compound also showed a percent labeling under setting [7] of 33.3%; a percent labeling under setting [8] of 47.1%; a percent labeling under setting [9] of 29.1%; a percent labeling under setting [10] of 37.7%; a percent labeling under setting [11] of 36.8%; a percent labeling under setting [12] of 53.8%.
In the case of `CCCN1CCN(c2ccc(CN(C)C(=O)CCS)nn2)CC1`, the percent labeling was 11.9% under setting [2]; 29.1% under setting [3]; 45.3% under setting [4]; 33.7% under setting [5]; 53.2% under setting [6]; 22.7% under setting [7]. The percent labeling runs as follows: under setting [9], 36.7%; under setting [10], 30.4%; under setting [11], 27.1%; under setting [12], 56.8%.
In turn, `O=C(CCS)Nc1cc(C(F)(F)F)ccc1N1CCCC1` displayed a percent labeling under setting [2] of 13.4%; a percent labeling under setting [3] of 48.6%; a percent labeling under setting [4] of 20.7%; a percent labeling under setting [5] of 12.1%; a percent labeling under setting [6] of 16.8%; a percent labeling under setting [7] of 26.2%. Moreover, the percent labeling stood at 10.3% under setting [9], 15.6% under setting [10], 11.5% under setting [11] and 22.8% under setting [12].
`Cc1c(CC(=O)NCCS)c(-c2ccccc2)nc2ccccc12` gave a percent labeling under setting [1] of 32.7%; a percent labeling under setting [2] of 14%; a percent labeling under setting [3] of 15.7%; a percent labeling under setting [4] of 9.5%; a percent labeling under setting [5] of 22.9%; a percent labeling under setting [6] of 14.8%. Further, the percent labeling under setting [7] was determined as 16.2%; the percent labeling under setting [8] turned out to be 24.7%; the percent labeling under setting [9] came to 7.4%; the percent labeling under setting [10] was found to be 9.1%; the percent labeling under setting [11] was 5.7%; the percent labeling under setting [12] was 30.6%.
Turning to `O=C(CCS)Nc1cccc(Br)c1`, the percent labeling is, setting by setting: under setting [2], 20.7%; under setting [3], 58.2%; under setting [4], 21.6%; under setting [5], 17.6%; under setting [6], 12.4%; under setting [7], 46%. Moreover, the percent labeling was determined as 17% under setting [9], 21.7% under setting [10], 13.5% under setting [11] and 29.8% under setting [12].
Take `CCC(CC)C(C(=O)NCCS)N1CCOCC1` (stereo unspecified): the percent labeling stood at 47.4% under setting [1]; 15% under setting [2]; 33.4% under setting [3]; 22.7% under setting [4]; 32.6% under setting [5]; 32.4% under setting [6]. Besides, the percent labeling runs as follows: under setting [7], 26.8%; under setting [8], 31.2%; under setting [9], 31%; under setting [10], 30.2%; under setting [11], 31.2%; under setting [12], 43.1%.
Take `CN(Cc1ccn(C(F)F)n1)C(=O)CCS`: the percent labeling was found to be 11.3% under setting [2]; 29.2% under setting [3]; 34.3% under setting [4]; 33.6% under setting [5]; 28.9% under setting [6]; 17.2% under setting [7]. The percent labeling runs as follows: under setting [9], 16.8%; under setting [10], 30.5%; under setting [11], 33.9%; under setting [12], 49.4%.
Turning to `CN(C)c1ccc(C(=O)NCCS)cc1`, the percent labeling by setting is: under setting [1], 46.8%; under setting [2], 24.1%; under setting [3], 45.4%; under setting [4], 17.5%; under setting [5], 31.2%; under setting [6], 22.4%. Besides, the percent labeling stood at 26.5% under setting [7]; 28.1% under setting [8]; 17.2% under setting [9]; 28.4% under setting [10]; 11.5% under setting [11]; 31.8% under setting [12].
Take `CN1CCN(c2cc(CNC(=O)CCS)ccn2)CC1`: the percent labeling is, setting by setting: under setting [2], 8.6%; under setting [3], 25.6%; under setting [4], 46.3%; under setting [5], 27.5%; under setting [6], 46.6%; under setting [7], 15%. Besides, the percent labeling reads like this: under setting [9], 12.1%; under setting [10], 25.4%; under setting [11], 23.7%; under setting [12], 44.2%.
For `Cc1nc2n(c(=O)c1CCNC(=O)CCS)CCCC2`, the percent labeling runs as follows: under setting [2], 11.2%; under setting [3], 27.4%; under setting [4], 41.4%; under setting [5], 25.8%; under setting [6], 39.1%; under setting [7], 10.4%. The percent labeling by setting is: under setting [9], 19.3%; under setting [10], 30.4%; under setting [11], 29.6%; under setting [12], 48.4%.
`CC(C)c1oc(-c2ccccc2)nc1C(=O)NCCS`: the percent labeling under setting [1] is 27.7%; the percent labeling under setting [2] is 10.3%; the percent labeling under setting [3] amounted to 13.1%; the percent labeling under setting [4] was 7.9%; the percent labeling under setting [5] stood at 17.3%; the percent labeling under setting [6] was 7.3%. The percent labeling under setting [7] was 31.7%; the percent labeling under setting [8] is 25.3%; the percent labeling under setting [9] was 8%; the percent labeling under setting [10] was 13.7%; the percent labeling under setting [11] is 6.9%; the percent labeling under setting [12] is 20.1%.
On to `O=C(CCS)Nc1cccc(OCCO)c1`, for which the percent labeling is, setting by setting: under setting [2], 17.1%; under setting [3], 40.2%; under setting [4], 40.1%; under setting [5], 26.6%; under setting [6], 32.3%; under setting [7], 38.1%. The percent labeling runs as follows: under setting [9], 44.5%; under setting [10], 34.8%; under setting [11], 36.4%; under setting [12], 54.4%.
Regarding `O=C(Cc1cnc[nH]1)NCCS`, the percent labeling by setting is: under setting [1], 23.5%; under setting [2], 10.9%; under setting [3], 20.2%; under setting [4], 18.5%; under setting [5], 28%; under setting [6], 21.1%. Also, the percent labeling is 16% under setting [7]; 27.1% under setting [8]; 19.9% under setting [9]; 21% under setting [10]; 20.4% under setting [11]; 26% under setting [12].
`Cc1ccccc1C(C(=O)NCCS)C1CCCC1` (stereo unspecified): the percent labeling turned out to be 47.2% under setting [1]; 11.8% under setting [2]; 15.3% under setting [3]; 10.5% under setting [4]; 34.4% under setting [5]; 15.3% under setting [6]. The percent labeling was 32.4% under setting [7]; 28.1% under setting [8]; 11% under setting [9]; 13% under setting [10]; 11.8% under setting [11]; 36.4% under setting [12].
In the case of `CC1(C)Oc2ccc(NC(=O)CCS)cc2O1`, the percent labeling is, setting by setting: under setting [2], 28%; under setting [3], 27.8%; under setting [4], 24.4%; under setting [5], 20.1%; under setting [6], 21.6%; under setting [7], 41.5%. Also, the percent labeling by setting is: under setting [9], 18.1%; under setting [10], 21.1%; under setting [11], 24.1%; under setting [12], 49.8%.
Turning to `O=C(NCCS)c1cc2ccc(Br)cn2c1`, the percent labeling is, setting by setting: under setting [1], 15.4%; under setting [2], 0%; under setting [3], 8.7%; under setting [4], 8.7%; under setting [5], 16.1%; under setting [6], 15.1%. Also, the percent labeling is 5.8% under setting [7]; 20% under setting [8]; 12.7% under setting [9]; 11.5% under setting [10]; 10% under setting [11]; 17.4% under setting [12].
